From publication PMC6919601, “Identification of Plasmodium dipeptidyl aminopeptidase allosteric inhibitors by high throughput screening” (PLoS ONE, 2019)
In all, about 110,000 compounds went through this assay and about 230 (0.21%) showed an effect of 50% or more. The list shows a part of the results.

Biological target: DPAP1 (Plasmodium falciparum, UniProt Q8IIJ9)
Experiment: primary screen, percent inhibition; read by cleavage of a fluorogenic dipeptide substrate; higher = more effect of the substance
Parameters: species or system P. falciparum D10 trophozoite lysates; single well
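Note: 30 min substrate incubation versus DMSO and 10 µM JCP410 controls.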

Sequence of DPAP1 (Q8IIJ9 whole entry, looked up): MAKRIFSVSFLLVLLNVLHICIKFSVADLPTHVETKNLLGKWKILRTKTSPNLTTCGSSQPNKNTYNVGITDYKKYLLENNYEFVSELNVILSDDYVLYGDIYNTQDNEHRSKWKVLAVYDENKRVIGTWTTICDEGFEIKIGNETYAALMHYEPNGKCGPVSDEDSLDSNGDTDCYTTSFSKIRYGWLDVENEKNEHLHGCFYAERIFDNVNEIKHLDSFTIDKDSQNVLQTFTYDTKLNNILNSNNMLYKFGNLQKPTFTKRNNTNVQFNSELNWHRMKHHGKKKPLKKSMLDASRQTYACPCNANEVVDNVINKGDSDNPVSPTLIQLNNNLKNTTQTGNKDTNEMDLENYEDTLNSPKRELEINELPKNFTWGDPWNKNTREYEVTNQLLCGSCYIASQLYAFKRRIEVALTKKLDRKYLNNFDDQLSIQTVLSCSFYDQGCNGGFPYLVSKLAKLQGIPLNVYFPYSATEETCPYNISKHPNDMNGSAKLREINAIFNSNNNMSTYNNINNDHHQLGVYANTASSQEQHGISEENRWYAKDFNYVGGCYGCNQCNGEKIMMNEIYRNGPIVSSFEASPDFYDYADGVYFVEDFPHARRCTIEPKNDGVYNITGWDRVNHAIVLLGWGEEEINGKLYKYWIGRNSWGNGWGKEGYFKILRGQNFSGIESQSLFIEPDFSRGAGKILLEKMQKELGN

| Compound | % Inhibition @ 10 uM [%] |
| --- | --- |
| Cn1c(=O)[nH]c(=O)c2c1nc(NCc1ccccc1)n2CC(O)COc1ccc(Cl)cc1 (stereo not shown) | -2.74 |
| CC(C(=O)N1CCN(CCO)CC1)(c1ccccc1)c1ccccc1 | -0.519 |
| CC1(C)CC(=O)N(CC(=O)O)c2ccccc2S1 | 3 |
| Oc1cccc(/C=C/c2cc(C(F)(F)F)nc(O)n2)c1 | -1.32 |
| Cc1ccnc2nc(NC(=O)COc3ccc(Cl)cc3)nn12 | 5.01 |
| O=C(Nc1ccc(-c2cn3ccsc3n2)cc1)c1cccs1 | 1.37 |
| O=C(O)C1C2C=CC(O2)C1C(=O)NCc1ccccn1 (stereo not shown) | -5.46 |
| Cc1cc(C)n(CCc2nc3c4ccccc4nc(N4CCN(Cc5ccccc5)CC4)n3n2)n1 | 2.6 |
| FC(F)Oc1ccccc1C1C=C(c2ccc(Br)s2)Nc2nnnn21 (stereo not shown) | 3.45 |
| Cc1ccc(C)c(NC(=O)C(C)Oc2ccccc2)c1 (stereo not shown) | -4.13 |
| O=C(OCC1OC2C(Oc3nc(=O)ccn32)C1O)c1ccccc1 (stereo not shown) | -5.28 |
| O=C(O)c1ccc(NC(=O)C2C3CCC(C3)C2C(=O)O)cc1 (stereo not shown) | 2.23 |
| OCC1OC(Nc2ccccc2NC2OC(CO)C(O)C(O)C2O)C(O)C(O)C1O (stereo not shown) | -5.36 |
| O=C1NC(=O)C(=Cc2c[nH]c3ccc(Br)cc23)C(=O)N1 | -3.14 |
| Cc1ccccc1N1CCN(Cc2ccc(Cl)c([N+](=O)[O-])c2)CC1 | -4.61 |
| NS(=O)(=O)c1ccc(CCNC(=O)CCc2ccccc2)cc1 | -11.7 |
| O=S(=O)(Cc1ccccc1)c1ccc2ccccc2c1 | -6.11 |
| CC(C)N(Cc1ccccc1)C(=O)C1=CCN(S(=O)(=O)c2ccccc2)CC1 | 3.4 |
| CC1=CC(C)(C)Nc2ccc(OC(=O)CCC3CCCCC3)cc21 | 4.26 |
| NC(=O)C1CCN(Cc2nc3ccccc3c(=O)n2-c2ccc(F)cc2)CC1 | -3.33 |
| CCOC(=O)N1CCN(S(=O)(=O)c2cccc3nonc23)CC1 | 2.84 |
| CN1C(=O)C(=Cc2ccc(OCc3c(F)cccc3Cl)cc2)C(=O)N(C)C1=O | 10.5 |
| CCOC(=O)c1nc(N)sc1C(=O)OCC | -2.44 |
| Cc1ccc2c(cnn2C(=O)CCC(=O)N2CCCCC2)c1 | 3.84 |
| COC(=O)c1ccccc1NC(=O)c1cccc(C)c1 | -1.22 |

| Compound | % Inhibition @ 10 uM [%] |
| --- | --- |
| CCCCc1oc2c(c(=O)c1CC)C(=O)CC(C)(C)C2 | 0.726 |
| CCOc1ccc(C(C)NC(=O)c2ccco2)cc1OCC (stereo not shown) | -3.49 |
| NC(=O)c1ccc(-n2nnnc2Oc2ccc3ccc(=O)oc3c2)cc1 | -2.63 |
| CCCSc1ncc(Cl)c(C(=O)Nc2sc3c(c2C(=O)NCc2ccco2)CCC3)n1 | 4.47 |
| O=C(CN(c1ccccc1Cl)S(=O)(=O)c1ccccc1)NC1CCCC1 | 1.57 |
| CCc1ccc(OCCCOc2ccc(/C=C3/C(=N)N4C=CSC4=NC3=O)cc2OC)cc1 | 3.47 |
| COc1cc(C2C(C#N)=C(N)Oc3[nH]nc(-c4ccc(Br)cc4)c32)cc(OC)c1O (stereo not shown) | -1.12 |
| OC1CCN(CC2CC=CCC2)CC1 (stereo not shown) | -0.446 |
| CCCCn1nnc2c(=O)oc3ccc([N+](=O)[O-])cc3c21 | 5.55 |
| CCN(CC)c1ccc(C2C3=C(O)CC(C)(C)CC3=NC(C)=C2C(=O)Nc2ccccn2)cc1 (stereo not shown) | -6.34 |
| CCOc1ccccc1N(CC(N)=O)S(=O)(=O)c1ccc(C)cc1 | 2.45 |
| COCCNC(=O)/C(C#N)=C/c1c(Oc2ccc(Cl)c(C)c2)nc2c(C)cccn2c1=O | -3.23 |
| CCOC(=O)N1CCC(NS(=O)(=O)c2csc(C(N)=O)c2)CC1 | -11.6 |
| CN1CCN(Cc2nc3c(c(=O)n(C)c(=O)n3C)n2Cc2cccc3ccccc23)CC1 | -0.499 |
| CCOC(=O)[C@H]1O[C@@H]1C(=O)NNC(=O)[C@H](Cc1cc(I)c(O)c(I)c1)NC(=O)c1ccc(Br)cc1 | -8.26 |
| Cc1nc2c(c(C)nn2C(C)(C)C)c(C)c1CCC(=O)NC1CCN(Cc2ccccc2)CC1 | -4.24 |
| CCCS(=O)(=O)N1CCC(C(=O)NCCN(CC(C)C)CC(C)C)CC1 | -1.79 |
| O=C1OC(/C=C/c2ccc(Cl)cc2Cl)=NC/1=C\c1ccco1 | 1.11 |
| Cc1cc(-c2ccc(C)c(S(=O)(=O)NCC3CCN(Cc4ccco4)CC3)c2)on1 | 1.56 |
| CSC1=NSC2=NC(=O)/C(=C\c3ccc(Br)o3)C(=N)N12 | -3.51 |
| Cc1cc(C)n2nc(NC(=O)C(C)Oc3ccccc3)nc2n1 (stereo not shown) | 5.2 |
| OC(COc1ccc2ccccc2c1)CN1CCOCC1 (stereo not shown) | -3.85 |
| CCOC(=O)C1=C(C)OC(N)=C(C#N)C1c1ccc(F)c(F)c1 (stereo not shown) | -6.18 |
| O=C(c1ccccc1)c1nc2ccccc2nc1O | 0.726 |
| O=C(Nc1cccc(Cl)c1)c1ccc(Cl)c(S(=O)(=O)N2CCOCC2)c1 | 14.3 |

| Compound | % Inhibition @ 10 uM [%] |
| --- | --- |
| CCOCCCNC(=O)C(NC(=O)c1ccc(O)nc1)c1ccccc1 (stereo not shown) | 2.84 |
| COc1ccc(S(=O)(=O)Nc2nc3c(C)cccc3s2)cc1 | -5.54 |
| CCCc1[nH]nc2c1C(c1ccccc1C(F)(F)F)C(C#N)=C(N)O2 (stereo not shown) | -0.661 |
| Cn1c(Oc2ccc(Cl)c3cccnc23)nc2c1c(=O)n(Cc1ccc(F)cc1)c(=O)n2C | -7.08 |
| N#CCc1cc2ccc3cccnc3c2[nH]1 | 1.49 |
| COc1ccc(N2CCN(C(=O)NC3CCCCC3)CC2)cc1 | 1.96 |
| COCCNC(=O)c1c(NC(=O)c2cc(=O)c3ccc(C)c(C)c3o2)sc2c1CCCC2 | -3.24 |
| CC(C)CNC(=O)c1ccccc1NC(=O)c1ccc(CN2CCOCC2)cc1 | -4.71 |
| CCOc1ccc(OCC)c(S(=O)(=O)N2CCOCC2)c1 | -1.2 |
| CCc1nnc(SCc2ccccc2)c2cc3occc3n12 | 3.35 |
| COc1ccc(-c2nc3n(n2)C(=O)CCS3)cc1 | 6.97 |
| COC(=O)Nc1ccc(S(=O)(=O)N2CCCCC2)cc1 | 2.51 |
| O=C(CCc1nc(CN2CCN(S(=O)(=O)c3ccc(F)cc3)CC2)no1)N1CCCC1 | 9.5 |
| Cc1ccc(S(=O)(=O)NCC2(C)CC(NS(=O)(=O)c3ccc(C)cc3)CC(C)(C)C2)cc1 (stereo not shown) | 2.09 |
| CSc1ccc2c(c1)C(=O)Cc1ccccc1S2 | 1.4 |
| CSc1ccc(CN2CCCN(C)CC2)cc1 | 6.18 |
| CCOc1ccc(C(=O)NC2CCCCCC2)cc1S(=O)(=O)N1CCCCCC1 | 10.6 |
| CCN(CC)S(=O)(=O)c1cc(C(=O)Nc2ccccn2)ccc1Br | 1.13 |
| CCC(Oc1ccccc1)C(=O)N1CCN(c2ccc(Cl)cc2)CC1 (stereo not shown) | 1.67 |
| CC(C)Cn1cc(NC(=O)NCc2cccnc2)c2ccccc2c1=O | 0.358 |
| OCc1ccc(Sc2ccc(Cl)cc2)cc1 | 3.65 |
| CCN1CCC(N2CCOCC2)CC1 | -0.233 |
| O=C(c1cccs1)n1cc(C(=O)C(F)(F)F)c2ccccc21 | -11.2 |
| Cc1ccc(CNC(=O)CCCn2c3ccccc3c3cnnc(O)c32)cc1 | 3 |
| CCS(=O)(=O)c1nc(S(=O)(=O)c2ccc(C)cc2)c(NCc2cccnc2)s1 | -5.89 |

| Compound | % Inhibition @ 10 uM [%] |
| --- | --- |
| Clc1ccc(-c2csc3ncnc(N4CCCCCC4)c23)cc1 | 0.408 |
| Cc1nn(CCCC(=O)NCCc2ccccc2)c(=O)c2c1sc1ccccc12 | -5.27 |
| Cc1[nH]c2ccccc2c1Cc1nnc(S)n1Cc1ccccc1 | -1.11 |
| CC1=C(C(=O)NCCC(C)C)C2(CCC(C)CC2)OC1=O (stereo not shown) | -1.89 |
| CC(C)CCn1c(=O)c2cccnc2n(CC(N)=O)c1=O | 1.72 |
| COC(=O)C(=C/C=C/c1ccccc1)C(=O)OC | 0.0719 |
| Cc1nn(-c2ccccc2)c(O)c1/C=N/CCO | 25.4 |
| CC1=C(C(=O)N(C)C)C(c2cccc(Cl)c2)n2c(nc3ccccc32)N1 (stereo not shown) | -9.03 |
| O=C1c2ccccc2C(=O)C1(c1ccccc1)N1CCCCC1 | 2.22 |
| Cc1ccc(S(=O)(=O)N2CCN(S(=O)(=O)N3CCOCC3)CC2)c(C)c1 | -5.67 |
| CCN(CC)CCNC(=O)C(NC(=O)C1CCC(C)CC1)C(C)C (stereo not shown) | 0.505 |
| O=C(O)C1C2C=CC(C2)C1C(=O)NCCC(c1ccccc1)c1ccccc1 (stereo not shown) | 2.48 |
| CC(=O)N1CCc2c(sc3c2c(=O)n(Cc2ccccc2)c(=O)n3Cc2ccc(F)cc2)C1 | -3.44 |
| CCC(=O)N1N=C2c3ccc(OC)cc3CCC2C1c1ccccc1 (stereo not shown) | 10.6 |
| Cc1nn(C(C)C(=O)N2CCN(Cc3ccccc3)CC2)c(=O)c2nn(-c3ccccc3)c(C)c12 (stereo not shown) | -5.74 |
| O=C1N/C(=C/c2ccc3c(c2)OCCO3)C(=O)N1Cc1ccccc1F | 5.24 |
| COc1ccc(C2NC(=O)N(C)C(C)=C2C(=O)Nc2ccccc2C)cc1 (stereo not shown) | 0.177 |
| CC(C)Cn1cc(C(=O)NC2CCN(Cc3ccccc3)CC2)c2c3ccccc3n(C)c2c1=O | -1.84 |
| O=C(NCc1ccccn1)C1CCN(c2ncccn2)CC1 | -0.946 |
| CC(CNC(=O)Cn1ncc2ccccc21)c1ccccc1 (stereo not shown) | 0.0198 |
| Cc1cc(N2CCNCC2)nc2c(C)c(Cl)ccc12 | -0.233 |
| CC1CCCCN1S(=O)(=O)c1ccc(CCN)cc1 (stereo not shown) | -1.24 |
| CC(=O)N1CCN(CCNC=C2C(=O)N(C3CCCCC3)C(=O)N(C3CCCCC3)C2=O)CC1 | 5.24 |
| CC1CCN(Cc2nnc(-c3ccc4c(c3)OCO4)o2)CC1 | -0.0709 |
| O=C(O)c1ccc(-n2nnnc2-c2ccccc2)cc1 | 4.41 |
